Patent US20180057551A1 (AMYLONIX, published 2018)
Where a chain is given by its changes, count along the chain named.

B1: AQHDEALE-[ABPP134]-VDYV-[ABD]-YVPG (designed binder)
chain: AQHDEALEAGGEIVYLPNLNAHQLCAFIRSLEDDPSQSANLLAEAKKLNDAQAPASSSSGSSSSGRASAGGEMVYLPNLNADQLCAFIRSLEDDPSQSANLLAEAKKLNDAQAPKVDYVLAEAKVLANRELDKYGVSDYYKNLINNAKTVEGVKALIDEILAALPYVPG
notes: periplasmic ABD fusion
B2: AQHDEALE-[ABPP143]-VDYV-[ABD]-YVPG (designed binder)
chain: B1 chain with G11R, I13R, P17R, M73I, D82H
notes: periplasmic ABD fusion
B3: AQHDEALE-[ABPP135]-VDYV-[ABD]-YVPG (designed binder)
chain: B1 chain with I13R, H22D, R29Q, M73R, D82H
notes: periplasmic ABD fusion
B4: AQHDEALE-[ABPP137]-VDYV-[ABD]-YVPG (designed binder)
chain: B1 chain with I13R, M73I, L76F, D82H
notes: periplasmic ABD fusion
B5: AQHDEALE-[ABPP140]-VDYV-[ABD]-YVPG (designed binder)
chain: B1 chain with I13R, H22D, P35R, M73I, L76F, P95S
notes: periplasmic ABD fusion
B6: AQHDEALE-[ABPP148]-VDYV-[ABD]-YVPG (designed binder)
chain: B1 chain with I13R, L16F, P17T, H22D, S38Q, M73I, L76F, D82H, R89N
notes: periplasmic ABD fusion
B7: AQHDEALE-[ABPP139]-VDYV-[ABD]-YVPG (designed binder)
chain: B1 chain with G11R, I13R, H22D, R29N, M73I, L76F, R89Q, P95R
notes: periplasmic ABD fusion
B8: AQHDEALE-[ABPP144]-VDYV-[ABD]-YVPG (designed binder)
chain: B1 chain with I13R, S38Q, G71R, M73R, S98Q
notes: periplasmic ABD fusion
B9: AQHDEALE-[ABPP145]-VDYV-[ABD]-YVPG (designed binder)
chain: B1 chain with L16F, G71R, M73R, P95R, S98Q
notes: periplasmic ABD fusion
B10: AQHDEALE-[ABPP147]-VDYV-[ABD]-YVPG (designed binder)
chain: B1 chain with G11R, I13R, H22D, G71R, M73R, P95R, S98Q
notes: periplasmic ABD fusion
B11: AQHDEALE-[ABPP136]-VDYV-[ABD]-YVPG (designed binder)
chain: B1 chain with G11R, I13R, H22D, M73I, L76F, R89Q, P95R
notes: periplasmic ABD fusion
B12: AQHDEALE-[ABPP146]-VDYV-[ABD]-YVPG (designed binder)
chain: B1 chain with I13R, R29Q, S38Q, G71R, M73R
notes: periplasmic ABD fusion
B13: ABPP001 displayed on S. carnosus, fused to ABP (designed binder)
chain: AGGEIVYFPNLNADQLCAFIRSLEDDPSQSANLLAEAKKLNDAQAPASSSSGSSSSGRASAGRERVYLPNLNADQLCAFIQSLEDDPSQQANLLAEAKKLNDAQAPKKLLDALAKAKADALKEFNKYGVSDYYKNLINNAKTVEGVKDLQAQVVESAKKARISEATDGLSDFLKSQTPAEDTVKSIELAEAKVLANRELDKYGVSDYHKNLINNAKTVEGVKDLQAQVVESAKKARISEATDGLSDFLKSQTPAEDTVKSIELAEAKVLANRELDKYGVSDYYKNLINNAKTVEGVKALIDEILAALP
notes: pSCZ1 surface display
B14: ABPP033 displayed on S. carnosus, fused to ABP (designed binder)
chain: B13 chain with R21Q, S30Q, Q81R
notes: pSCZ1 surface display
B15: ABPP016 displayed on S. carnosus, fused to ABP (designed binder)
chain: B13 chain with V6H, D14H, S30Q, Q81R
notes: pSCZ1 surface display
B16: ABPP013 displayed on S. carnosus, fused to ABP (designed binder)
chain: B13 chain with S30Q, Q81R, P87R
notes: pSCZ1 surface display
B17: ABPP049 displayed on S. carnosus, fused to ABP (designed binder)
chain: B13 chain with I5R, P9T, R21Q, D74H, Q81R
notes: pSCZ1 surface display
B18: ABPP014 displayed on S. carnosus, fused to ABP (designed binder)
chain: B13 chain with F8L, D14H, R21Q, S30Q, Q81N, Q90S
notes: pSCZ1 surface display
B19: ABPP060 displayed on S. carnosus, fused to ABP (designed binder)
chain: B13 chain with R21Q, S30Q, D74H, Q81R, P87R
notes: pSCZ1 surface display
B20: ABPP054 displayed on S. carnosus, fused to ABP (designed binder)
chain: B13 chain with S30Q, D74H, Q81R
notes: pSCZ1 surface display
B21: ABPP025 displayed on S. carnosus, fused to ABP (designed binder)
chain: B13 chain with I5R, F8L, D14H, Q81R, Q90S
notes: pSCZ1 surface display
B22: ABPP035 displayed on S. carnosus, fused to ABP (designed binder)
chain: B13 chain with D14H, S30Q, Q81N, L83I, Q90S
notes: pSCZ1 surface display
B23: ABPP040 displayed on S. carnosus, fused to ABP (designed binder)
chain: B13 chain with S30Q, Q81R
notes: pSCZ1 surface display
B24: ABPP048 displayed on S. carnosus, fused to ABP (designed binder)
chain: B13 chain with R21Q, Q81R
notes: pSCZ1 surface display
B25: ABPP042 displayed on S. carnosus, fused to ABP (designed binder)
chain: B13 chain with I5R, F8L, Q81R
notes: pSCZ1 surface display
B26: ABPP020 displayed on S. carnosus, fused to ABP (designed binder)
chain: B13 chain with D14H, D74H, L83I, Q90S
notes: pSCZ1 surface display
B27: ABPP026 displayed on S. carnosus, fused to ABP (designed binder)
chain: B13 chain with D14H, Q81N
notes: pSCZ1 surface display
B28: ABPP021 displayed on S. carnosus, fused to ABP (designed binder)
chain: B13 chain with D14H, Q90S
notes: pSCZ1 surface display
B29: ABPP050 displayed on S. carnosus, fused to ABP (designed binder)
chain: B13 chain with F8L, R21Q, D74H
notes: pSCZ1 surface display
B30: ABPP062 displayed on S. carnosus, fused to ABP (designed binder)
chain: B13 chain with I5R, F8L, R21Q, R63G, R65I, L68F, D74H, Q81N, Q90S
notes: pSCZ1 surface display
B31: ABPP061 displayed on S. carnosus, fused to ABP (designed binder)
chain: B13 chain with I5R, F8L, R63G, R65I, L68F, D74H, Q81R, Q90S
notes: pSCZ1 surface display
B32: ABPP005 displayed on S. carnosus, fused to ABP (designed binder)
chain: B13 chain with I5R, F8L, D74H, Q81N, L83I, Q90S
notes: pSCZ1 surface display
B33: ABPP028 displayed on S. carnosus, fused to ABP (designed binder)
chain: B13 chain with F8L, D14H, R21Q, S30Q, D74H, Q90S
notes: pSCZ1 surface display

Each binder was assayed against T1, anti-ABD goat antibody (produced in-house) (assay: SPR Biacore 2000, periplasmic sample over immobilised anti-ABD goat antibody).
T1 construct: also called Anti-ABD surface

Binder	Response RU [RU]
B1	40.8
B2	31.7
B3	35
B4	35.2
B5	36.5
B6	28.7
B7	32.7
B8	32.1
B9	34.3
B10	39.2
B11	39.5
B12	36.7

Each binder was assayed against T2, human Aβ1-40 peptide (human, biotin at the C-terminus (flow cytometry, Examples 2-4) or at the N-terminus (SPR, ELISA); unlabeled plus Alexa488/Alexa647-labeled in FCS) (assay: ELISA, fusion captured by anti-ABD antibody, biotinylated hAβ1-40 titrated).
T2 construct: synthetic peptide (AnaSpec); one entry for all labelled forms, label named under assay; also called hAβ1-40; Aβ40

Binder	EC50 [nM]
B1	27
B2	9.3
B3	6.3
B4	8.4
B5	41
B6	6
B7	8.4
B8	16
B9	9.4
B10	7.9
B11	7.9
B12	8.6

The binders below were run against T2, human Aβ1-40 peptide (assay: sandwich ELISA, periplasmic ABD fusion, 2 nM biotinylated hAβ1-40).
Protocol: Half-area 96-well ELISA plates (Costar, cat. no. 3690) were coated at 4° C. overnight with 2 μg/ml of an anti-ABD goat antibody (produced in-house) diluted in coating buffer (50 mM sodium carbonate, pH 9.6; Sigma, cat. no. C3041).

T2 sequence (peptide, as listed by the source): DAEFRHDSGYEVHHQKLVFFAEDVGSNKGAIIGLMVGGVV

Binder	ELISA response (absorbance 450 nm) [AU]
B1	≥ 0.2
B2	≥ 0.2
B3	≥ 0.2
B4	≥ 0.2
B5	≥ 0.2
B6	≥ 0.2
B7	≥ 0.2
B8	≥ 0.2
B9	≥ 0.2
B10	≥ 0.2
B11	≥ 0.2
B12	≥ 0.2

These binders were tested against T2, human Aβ1-40 peptide (assay: SPR Biacore 2000, periplasmic sample over immobilised biotinylated hAβ1-40).

Binder	Response RU [RU]
B1	10.3
B2	15.8
B3	14.9
B4	15.3
B5	12.3
B6	10.2
B7	10.4
B8	10
B9	15.2
B10	17
B11	13.7
B12	15.2

These binders were tested against T2, human Aβ1-40 peptide (assay: flow cytometry, on-cell off-rate ranking on S. carnosus: 25 nM biotinylated Aβ1-40, 100 nM unlabeled Aβ1-40 for 6 h; MFI of Aβ binding (FL-2) / MFI of surface expression (FL-6)).

Binder	binding result
B13	binds
B14	binds
B15	binds
B16	binds
B17	binds
B18	binds
B19	binds
B20	binds
B21	binds
B22	binds
B23	binds
B24	binds
B25	binds
B26	binds
B27	binds
B28	binds
B29	binds
B30	binds
B31	binds
B32	binds
B33	binds
